According to the antibiotic and cytotoxicity screens of Wong et al. (2023):
The list shows a part of the results.

Experiments:
HSkMC = human skeletal muscle cells; assay: cytotoxicity call (relative viability < 0.9); conditions: 10 µM
HepG2 = assay: cytotoxicity call (relative viability < 0.9); conditions: 10 µM
S. aureus RN4220 = assay: growth inhibition call (relative growth <= 0.2); conditions: 50 µM

C[C@@H](O)C[C@H]1CC[C@@H](O)[C@@H](C)C(=O)O[C@@H](C[C@@H](C)O)CC[C@@H](O)[C@@H](C)C(=O)O1
inactive: cytotoxicity call (HSkMC) | cytotoxicity call (HepG2) | growth inhibition call (S. aureus RN4220)

Cc1cc(C(=O)Nc2cccc3c2O[C@H](CN(C)S(=O)(=O)c2cccs2)[C@H](C)CN([C@H](C)CO)C3=O)n(C)n1
inactive: cytotoxicity call (HSkMC) | cytotoxicity call (HepG2) | growth inhibition call (S. aureus RN4220)

CO[C@@H]1CN(C)C(=O)c2cc(NS(=O)(=O)c3cn(C)cn3)ccc2OC[C@@H](C)N(CCC(F)(F)F)C[C@H]1C
inactive: cytotoxicity call (HSkMC) | cytotoxicity call (HepG2) | growth inhibition call (S. aureus RN4220)

C[C@@H]1CN([C@@H](C)CO)C(=O)c2cc(C#Cc3ccccc3F)cnc2O[C@H]1CN(C)C(=O)C1CCOCC1
inactive: cytotoxicity call (HSkMC) | cytotoxicity call (HepG2) | growth inhibition call (S. aureus RN4220)

CCOC(=O)c1cc2c(c(-c3ccccc3)n1)[C@@H](CCO[Si](C)(C)C(C)(C)C)N(S(=O)(=O)C(C)(C)C)C2
inactive: cytotoxicity call (HSkMC) | cytotoxicity call (HepG2) | growth inhibition call (S. aureus RN4220)

CN(C)C(=O)C[C@@H]1CC[C@@H]2[C@@H](COc3ccc(NS(=O)(=O)c4cccc(F)c4)cc3C(=O)N2C)O1
inactive: cytotoxicity call (HSkMC) | cytotoxicity call (HepG2) | growth inhibition call (S. aureus RN4220)

Cc1noc(C)c1S(=O)(=O)Nc1ccc2c(c1)CC(=O)N([C@H](C)CO)C[C@H](C)[C@@H](CN(C)S(=O)(=O)c1ccccc1)O2
inactive: cytotoxicity call (HSkMC) | cytotoxicity call (HepG2) | growth inhibition call (S. aureus RN4220)

C[C@H](CO)N1C[C@H](C)[C@@H](CN(C)C(=O)CCCN(C)C)OCCCC[C@H](C)Oc2ccc(NS(C)(=O)=O)cc2C1=O
inactive: cytotoxicity call (HSkMC) | cytotoxicity call (HepG2) | growth inhibition call (S. aureus RN4220)

Cc1ccc(S(=O)(=O)N(C)C[C@@H]2Oc3ccc(NC(=O)C4CC4)cc3CC(=O)N([C@H](C)CO)C[C@H]2C)cc1
inactive: cytotoxicity call (HSkMC) | cytotoxicity call (HepG2) | growth inhibition call (S. aureus RN4220)
